From the supplement of paper PMC3334620
The full ranking holds about 33,000 sequences; the median of “E-score (-0.5 to 0.5)” is about -0.011, and the highest 2% start at about 0.28. The list shows a part of the results.

These sequences were tested against T1, Gcr1 (UniProt P07261) (assay: PBM E-score (8-mer binding enrichment) (E-score (-0.5 to 0.5)); higher = stronger / more preferred TF binding; most listed sequences are background and not binding sites). Conditions: protein concentration: 100 nM; construct: GST-full length.
T1 sequence: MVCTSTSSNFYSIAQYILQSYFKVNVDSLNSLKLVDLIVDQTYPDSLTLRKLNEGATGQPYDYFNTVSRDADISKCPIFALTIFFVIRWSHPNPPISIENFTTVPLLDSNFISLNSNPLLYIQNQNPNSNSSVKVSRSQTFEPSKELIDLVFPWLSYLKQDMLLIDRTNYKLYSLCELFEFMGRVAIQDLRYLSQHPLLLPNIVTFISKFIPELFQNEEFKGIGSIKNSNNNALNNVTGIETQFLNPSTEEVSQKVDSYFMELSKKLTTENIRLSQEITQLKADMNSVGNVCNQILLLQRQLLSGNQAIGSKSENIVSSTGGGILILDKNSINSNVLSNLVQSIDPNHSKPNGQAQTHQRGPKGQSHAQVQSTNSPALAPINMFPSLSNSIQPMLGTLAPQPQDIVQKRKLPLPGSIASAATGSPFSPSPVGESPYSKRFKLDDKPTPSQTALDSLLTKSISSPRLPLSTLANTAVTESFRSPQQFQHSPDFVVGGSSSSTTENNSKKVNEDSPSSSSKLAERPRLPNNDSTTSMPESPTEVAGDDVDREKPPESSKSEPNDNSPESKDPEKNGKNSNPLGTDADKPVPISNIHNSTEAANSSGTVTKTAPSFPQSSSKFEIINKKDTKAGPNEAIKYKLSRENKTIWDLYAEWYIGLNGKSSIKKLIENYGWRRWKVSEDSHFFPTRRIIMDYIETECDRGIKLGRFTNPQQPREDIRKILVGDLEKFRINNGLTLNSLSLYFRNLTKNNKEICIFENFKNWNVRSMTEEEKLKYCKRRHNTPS
Outline: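 PURExpress in vitro transcription/translation supplied GST-tagged yeast transcription factors, either full-length or DNA-binding domain. Applied at about 100-200 nM to universal all-10-mer Agilent arrays double-stranded by primer extension, the bound protein was detected with fluorescent anti-GST. E-scores, modified Wilcoxon-Mann-Whitney statistics, were given by the Universal PBM Analysis Suite to ungapped eight-base words pooled with their reverse complements after masliner normalisation.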

Row | Sequence | PBM E-score
1 | ATTCAACG | -0.0253
2 | ACCTATAC | 0.131
3 | CTGGGTCA | -0.0878
4 | TATAGATA | 0.0291
5 | AAGCCCCC | 0.057
6 | TACCACCA | 0.0815
7 | ATTTCTGA | -0.0909
8 | GCATGGGC | -0.0196
9 | CTAAACGC | 0.0998
10 | CCCTCATA | 0.0348
11 | AGTTTTCG | 0.114
12 | ATACTTAG | 0.185
13 | GGCCTGCA | -0.237
14 | GGGGCAAC | -0.0383
15 | GTTTCTGA | 0.076
16 | TGCTCGAA | -0.191
17 | ATAGAATG | -0.0971
18 | CGCGAGCA | -0.0802
19 | CCCTAAAC | -0.00244
20 | GGGAGTTA | -0.104
21 | CGGACCAA | -0.13
22 | CGGGTCTC | -0.146

Row | Sequence | PBM E-score
23 | AACCAGAT | 0.228
24 | ACCGTAAC | -0.00149
25 | AGACTAAC | -0.215
26 | CATGCCGA | 0.041
27 | AGTTCAAC | -0.106
28 | CTCCAACA | -0.173
29 | CATACGAC | -0.104
30 | ATACTCAA | 0.0634
31 | CATTAGGC | -0.0378
32 | CAACTGTG | 0.0437
33 | AGGGGGCG | -0.0651
34 | AGTCTACA | -0.0761
35 | TCTAGAAA | 0.073
36 | TAATACGA | 0.125
37 | AGACCTAA | -0.0474
38 | CAATCCCC | -0.0913
39 | ACCGTTTA | 0.0358
40 | AAGTTAAG | 0.0264
41 | ATTAGTGG | 0.388
42 | CTCTATAC | -0.0351
43 | AGCGCTAA | -0.0506
44 | TAACAAGA | 0.13

Row | Sequence | PBM E-score
45 | AATAACCC | -0.00103
46 | CGGACTCA | -0.0589
47 | AATGTGGT | 0.0604
48 | GATATGAC | -0.0755
49 | GGACTCCC | 0.263
50 | AAATACAG | -0.0546
51 | ACGACCTA | -0.0425
52 | AGGGCTTA | -0.262
53 | ACCTTCCA | 0.127
54 | AGCGTGAG | 0.0746
55 | ATGCAGTG | -0.0911
56 | AATTCGCT | -0.0547
57 | CCTGTGGA | -0.0896
58 | GCAAGATA | 0.0546
59 | ATGCCGGC | 0.121
60 | GCGACCGC | -0.0355
61 | ACGCTAAC | -0.0737
62 | AGAGGTGC | -0.0545
63 | CTAGATGA | -0.106
64 | CAGGCACA | -0.23
65 | GAGGTTTA | -0.108
66 | GTAATAAC | -0.0815

Row | Sequence | PBM E-score
67 | GTGCTGGA | 0.221
68 | ATCGGACC | 0.068
69 | GACGCCAC | 0.195
70 | AAGGAAGC | 0.452
71 | TAGAACCA | 0.0906
72 | ACCCCGCG | -0.208
73 | CCCCCAAC | -0.261
74 | GTAGCAGA | -0.0597
75 | AGTGAGTC | 0.062
76 | ACCTCAGT | 0.141
77 | CAATTTGC | -0.0413
78 | GCCCTTCC | -0.0423
79 | ATTTAGAG | 0.131
80 | AAGCGTTA | -0.123
81 | ATATGCAG | -0.154
82 | GCTGGTCA | -0.151
83 | ATGGTGGA | -0.229
84 | CCGTTTAG | 0.0929
85 | AACTGTCT | -0.0525
86 | AGCAGTGA | 0.0121
